In all, about 33,000 sequences were measured (“E-score (-0.5 to 0.5)”: median about -0.036, highest 2% from about 0.37 on). This is one part of the list.
What follows are sequences tested against T1, Yer064c (UniProt P40041) (assay: PBM E-score (8-mer binding enrichment) (E-score (-0.5 to 0.5)); higher = stronger / more preferred TF binding; most listed sequences are background and not binding sites). Conditions: protein concentration: 200 nM; construct: GST-full length.
T1 sequence: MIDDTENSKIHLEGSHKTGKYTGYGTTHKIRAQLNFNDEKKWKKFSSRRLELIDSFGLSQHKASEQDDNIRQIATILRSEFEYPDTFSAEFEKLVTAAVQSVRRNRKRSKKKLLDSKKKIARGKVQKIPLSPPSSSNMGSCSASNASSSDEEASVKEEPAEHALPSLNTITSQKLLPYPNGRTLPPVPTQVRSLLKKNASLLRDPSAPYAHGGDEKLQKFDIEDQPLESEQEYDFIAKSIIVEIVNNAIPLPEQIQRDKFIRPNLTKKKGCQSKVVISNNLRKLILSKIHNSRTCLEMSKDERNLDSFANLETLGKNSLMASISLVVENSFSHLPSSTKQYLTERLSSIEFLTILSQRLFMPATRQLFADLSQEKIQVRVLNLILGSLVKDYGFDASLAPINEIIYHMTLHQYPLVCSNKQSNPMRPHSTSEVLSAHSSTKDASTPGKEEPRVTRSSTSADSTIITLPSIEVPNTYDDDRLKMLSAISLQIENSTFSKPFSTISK
Description: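 Universal 'all 10-mer' protein binding microarrays (Agilent AMADID 015681) probed with GST-tagged S. cerevisiae TFs (full-length or DBD) made by in vitro transcription/translation (PURExpress), about 100-200 nM. Bound TF was detected with fluorescent anti-GST. Each ungapped 8-mer (which stands for itself and its reverse complement) is scored by the PBM enrichment score (E-score), a modified Wilcoxon-Mann-Whitney statistic from -0.5 to +0.5, computed with the Universal PBM Analysis Suite. Scale: above 0.35 generally sequence-specific binding.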

Sequence	PBM E-score
CGCAGACC	-0.276
ATCTTCTG	-0.125
GGGATCAC	-0.0848
CGGCCCTC	-0.331
AGTAACGG	-0.00353
AGGAGTAT	0.00681
CCGATAGC	-0.265
GGGATAGA	-0.313
GATGTGCC	-0.119
GACCTGGC	-0.408
AACATGGA	0.00424
AAGAAGAC	0.0851
CACAGTGG	0.036
GGACCGAC	-0.117
AACCCACA	0.043
CCCGATCA	-0.244
CAGAATTC	0.0866
GGCGTACA	-0.0682
ATATTCAC	-0.0263
ACGACTTC	0.324
CCACGTCC	-0.319
CACTTATC	0.0332
ACTGGTAG	0.053
CAATTTAA	0.185
CTGGGCAA	-0.0496

Sequence	PBM E-score
CAAGGGGC	-0.113
ACACAATG	0.202
ACATCCGA	-0.106
TAATGACA	0.101
AAGACGCG	-0.217
CGGTTCTC	-0.13
CCGCTACG	-0.206
ACCTGTTG	-0.0987
GAGGCACC	-0.457
CGATCGCG	-0.197
CGTGTTGC	-0.0244
AGTAACTG	-0.0725
AGCAAACT	0.0618
ACGGACAA	0.0629
AAAATAGC	-0.258
ACTTTTTC	0.0284
CAGCCTCA	-0.158
GACCTTAC	-0.0771
CGTGAATA	0.0635
CCCTATAC	-0.0386
CCCGGTGC	-0.251
CGGAAGCA	-0.135
ACCCCAAG	-0.188
ATCGGACA	-0.0974
ATTGGCGG	-0.0566

Sequence	PBM E-score
GCGGCTGA	-0.0585
TCCGCAAA	-0.0299
CGGATTAG	-0.147
AAGATCTA	-0.144
AACGTCCA	-0.0452
GTTATAGA	0.0496
AAAAAATG	-0.0204
GGGAAGGA	-0.139
CGGCGGTA	-0.0622
CCAACGGC	-0.252
ATCTAACA	-0.0587
ATGGAGCG	-0.0563
TAGTTCAA	0.0501
CCTATACG	-0.045
AGTGGTCG	0.0664
GGAGTCCC	0.189
AACTCACG	0.211
TAGTGAGA	0.103
CTGTGGCA	0.0335
TAGATCCA	-0.0329
GGGGCCGA	-0.208
ACTATCAC	0.148
AAGGTACT	0.0431
TCGCCACA	-0.0758
CGTGATTC	0.418

Sequence	PBM E-score
ACGGGGGC	-0.231
CCTTTGAA	0.0176
CATAGTAA	0.212
ACTCCCCT	0.136
CGCCACAA	-0.155
GATCCTAC	-0.193
CAAAGTGC	0.0793
AGGTGTAA	-0.0357
CGCTGGTC	-0.183
ATCTCTGG	-0.143
CCAGACAG	-0.27
TGGTGACA	-0.0923
ATCGCGAT	0.115
ACTCGTAA	0.302
CCTGTTAG	-0.00747
ATCTGGCG	0.149
CCAACAGC	-0.115
GAGGCGGA	-0.0783
AAGTACCC	-0.0413
CATATATC	-0.0369
GCCCACGA	-0.051
AATACCCG	0.033
ATCTTCGA	0.074
CTGGCAAA	-0.0477
GTGCGATA	0.0394

Sequence	PBM E-score
TCCTCCAA	-0.0575
CTGAACTC	0.073
GAGTGTGC	0.0122
ATGACTGC	0.467
ACTCCAAT	0.238
GCGTGAAA	-0.106
ACTATGTA	0.112
ATGACTTG	0.435
ACAACGCC	-0.2
TCAATAGA	0.22
CCCCAAGC	-0.052
CGGCCGAG	-0.119
GAGAATGC	-0.313
CCTAGGGA	-0.0279
CACAATTC	0.00015
GAGCGCCC	-0.263
TACATAAA	0.0156
AGCGAGTC	0.405
AGTGCAAG	-0.0228
ATGGCCTC	-0.249
AACCGAGC	-0.162
GTACGGTA	-0.147
GGCAGGAA	-0.219
ATCCGAAA	-0.0225
ACCAAGAC	0.00504

Sequence	PBM E-score
ACTGGTGC	-0.164
GAGGCGGC	-0.311
GTAGGGAC	0.0286
TAGCCTAA	-0.0706
CATATGAG	0.223
AGCTATAT	-0.00349
CGCTGAAA	-0.134
CCCTTCCC	-0.0101
GGGCGAGA	-0.232
TCAATTCA	0.118
GCCTCCTA	-0.282
CTCTTCGA	0.0284
CCGCGAGG	-0.0381
AGCGGACG	-0.262
AGTCTCCC	0.382
TGGGACCA	-0.183
AGAGCCAA	0.0743
AAAAAACC	-0.0361
GCTGGACA	-0.0194
CTCCATAA	-0.0232
CTAAGACC	0.115
AAGTGCCG	-0.182
GCGTGCAA	-0.184
CAGGAAGC	-0.0442
AGATGTCC	-0.302

Sequence	PBM E-score
AAGCTGGG	-0.144
AGTGCCAC	-0.368
AAAACCGG	-0.021
GAGTAAAA	0.112
ACTAAATG	0.256
TTGGTAAA	0.118
GAATCGCC	0.207
AGGCTTCC	-0.305
CCCGTGAA	0.0268
AGGAGGCA	-0.251
CGGATGTA	-0.194
TGATCTAA	0.18
GTAGAAAA	-0.0593
AGCCGATA	-0.12
GGTCTGAA	-0.136
CTTGACTC	0.463
ATGAGGCC	-0.309
ACTTACGG	0.0488
ACAGACGG	-0.0171
AAATGGCC	-0.343
GCTGTGGA	-0.0873
TGCGTTAA	0.0664

Reference: the supplement of paper PMC3334620
